The source of these data is the supplement of paper PMC3334620.

The full ranking holds about 33,000 sequences; the median of “E-score (-0.5 to 0.5)” is about -0.041, and the highest 2% start at about 0.37. The list shows a part of the results.

The experiment deals with T1, Ecm22 (UniProt Q05958).
T1 sequence: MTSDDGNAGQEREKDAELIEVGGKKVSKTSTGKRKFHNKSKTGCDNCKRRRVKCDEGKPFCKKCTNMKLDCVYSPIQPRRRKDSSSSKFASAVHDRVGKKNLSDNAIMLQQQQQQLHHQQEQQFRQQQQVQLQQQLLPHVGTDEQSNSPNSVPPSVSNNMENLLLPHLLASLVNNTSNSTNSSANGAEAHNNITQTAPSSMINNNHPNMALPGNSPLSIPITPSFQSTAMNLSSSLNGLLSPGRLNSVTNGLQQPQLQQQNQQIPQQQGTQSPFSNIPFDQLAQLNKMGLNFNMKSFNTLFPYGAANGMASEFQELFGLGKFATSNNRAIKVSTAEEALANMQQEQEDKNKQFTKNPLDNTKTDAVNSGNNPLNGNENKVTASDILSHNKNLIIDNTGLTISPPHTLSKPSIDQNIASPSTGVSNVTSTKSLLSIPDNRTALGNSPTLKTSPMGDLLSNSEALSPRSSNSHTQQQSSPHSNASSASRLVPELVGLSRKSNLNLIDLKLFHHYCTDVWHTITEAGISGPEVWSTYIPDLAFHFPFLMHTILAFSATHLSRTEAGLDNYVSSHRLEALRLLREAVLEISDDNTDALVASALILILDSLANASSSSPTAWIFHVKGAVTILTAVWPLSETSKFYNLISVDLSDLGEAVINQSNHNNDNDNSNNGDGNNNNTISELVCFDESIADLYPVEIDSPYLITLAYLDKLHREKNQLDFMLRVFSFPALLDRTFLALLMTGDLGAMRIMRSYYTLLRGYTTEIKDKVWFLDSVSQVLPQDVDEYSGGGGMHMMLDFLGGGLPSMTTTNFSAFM
Kind of experiment: PBM E-score (8-mer binding enrichment) (E-score (-0.5 to 0.5)); higher = stronger / more preferred TF binding; most listed sequences are background and not binding sites. The following applies: protein concentration: 200 nM; construct: GST-full length. In a few lines: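 Full-length yeast transcription factors or their DNA-binding domains, GST-tagged and expressed with PURExpress, were applied at about 100-200 nM to universal all-10-mer Agilent arrays. These arrays had been made double-stranded by primer extension on fresh or once-stripped slides. Detection used fluorescent anti-GST, normalisation used masliner, and E-scores for ungapped eight-base words pooled with reverse complements came from the Universal PBM Analysis Suite.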
For GAGAACTC, the “PBM E-score” value was -0.0846.
The figure for AAACGCAC is 0.219; for ATCGTACG it is 0.437; for AACAGCCC it is -0.179.
The figure for CCGACTAA is 0.0673; for TCTCGTCA it is 0.0737.
The figure for ATCTATGC is 0.0159.
With GATCTCAC, the “PBM E-score” value is -0.227.
The figure for GACACTAA is 0.0931; for AAGATCAA it is -0.0315; for AATAGCCA it is -0.0579.
The figure for AATTAATC is 0.105; for GTTGCAAA it is 0.131.
On to CTCCGCGC, for which the “PBM E-score” value was -0.0267.
The figure for AGGGTCTC is -0.259; for CTGCATGC it is 0.0116; for TTACCTAA it is 0.0108.
The figure for GAATATTA is 0.0848; for GGGCGTAC it is 0.214; for CTGCGGTA it is 0.0627.
As to ACCATTTA, the “PBM E-score” value amounted to 0.0636.
On to CCAATGCG, for which the “PBM E-score” value was -0.082.
The figure for GTTGAAGA is -0.00558; for GACCAAGA it is -0.054; for CAGACGTA it is 0.0611.
The figure for CAGGGATA is -0.137; for TTCACAAA it is -0.108; for AAACCGCC it is -0.0833.
The figure for CCCAGCTA is -0.152.
Turning to GCTCATCC, the “PBM E-score” value came to 0.0839.
The figure for CGCACGTA is 0.168.
Take ACGCCCCC: the “PBM E-score” value is -0.113.
As to GAGATTGA, the “PBM E-score” value was -0.126.
The figure for ACCTGGAA is -0.0824; for ATGCCGCA it is -0.0303.
Consider CATTCCCA, for which the “PBM E-score” value was -0.146.
The figure for AGACGACA is 0.0702.
On to ACCATAAG, for which the “PBM E-score” value was -0.247.
The figure for ATATCTGA is -0.084.
On to CCACCCCG, for which the “PBM E-score” value was -0.0383.
For CCTCAAAC, the “PBM E-score” value came out at 0.159.
The figure for ACTCTTCT is -0.0892; for GAAGAGGA it is -0.175; for CTAGCTCC it is -0.0403.
The figure for AGGTCCGA is 0.197.
The figure for ATTCTAAG is 0.0558; for AATGTCTC it is -0.115.
With AACAATGA, the “PBM E-score” value is -0.00952.
The figure for CCCTCCCC is -0.0555; for TCATTGCA it is -0.0625; for AGAGTAAT it is -0.0617.
As to TCTCAACA, the “PBM E-score” value was -0.114.
Turning to GAACTCGC, the “PBM E-score” value is 0.218.
The figure for CCCGCGCC is -0.046; for AGTAGCCG it is -0.11; for ACTTCCAG it is -0.223.
The figure for AGAACGTA is 0.178; for AATTAGCG it is 0.104.
With CGCCCAAC, the “PBM E-score” value was -0.0505.
With CAATGCGA, the “PBM E-score” value is 0.0981.
In the case of ACCGCTGG, the “PBM E-score” value was -0.164.
On to AGGGACAG, for which the “PBM E-score” value was -0.161.
On to GGACCAGA, for which the “PBM E-score” value was -0.184.
The figure for GGTCTAAA is -0.0254; for CTCCACCA it is -0.165.
The figure for ACATACGG is 0.321; for TAAGACCA it is -0.199.
The figure for CGAGCTGC is 0.214.
For ACTTTCTA, the “PBM E-score” value is -0.153.
The figure for GAAACAAC is 0.095; for TACAGGGA it is -0.136.
In the case of AAGCGACC, the “PBM E-score” value was 0.278.
The figure for CGTCGGAC is 0.101; for AACGACCA it is 0.424; for AGAACTGG it is -0.117.
The figure for GGGGGCTA is -0.173; for ATGCTTCA it is -0.257.
As for GGAGGACA, the “PBM E-score” value was -0.0806.
As to AATACTGA, the “PBM E-score” value was -0.00735.
The figure for AATGGCAT is 0.113.
Take AAAGGTGC: the “PBM E-score” value is -0.112.
For GGGACTAA, the “PBM E-score” value was -0.202.
The figure for AGCTGCTC is -0.218.
The figure for AAGTCCAA is -0.206; for ATCGTACC it is 0.479; for CAGCTTAC it is 0.00572.
